{"source": "the supplement of paper PMC10338343", "note": "± gives the standard deviation. Only a part is listed here, and it is no random draw.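 Note: 1 nM active piRISC with 0.1 nM target library at 33 °C single turnover.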"}
{"tested_on": "MIWI (PIWIL1) piRISC loaded with piRNA #1 (30 nt)", "test": "pre-steady-state target cleavage rate (min^-1); MIWI and MILI are mouse PIWI proteins and EfPiwi is from a freshwater sponge; tags in brackets are library labels; higher = faster piRNA-guided slicing of the target", "conditions": "guide: piRNA #1 5'p-UGAGGUAGUAGGUUGUAUAGUAUCCAGAGG; auxiliary factor: 500 nM mouse GTSF1", "outline": "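Three pooled Cleave-'n-Seq trials supplied the data, with k3 capped at 0.0001 min^-1. In each, […] transcribed, DNA-blocked target RNA library and 1 nM active affinity-purified piRISC with one synthetic guide reacted in HEPES–potassium acetate buffer at 33 °C for 0–8 or 0–960 min, with or without 500 nM GTSF1 partner protein. Uncleaved targets were sequenced and normalised to depth and to weakly complementary targets. A burst-and-steady-state fit provided the pre-steady-state cleavage rate.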"}
{"sequence": "GGAGUAGGAUACUAUACAACCUACUACCUCA", "pre-steady-state target cleavage rate": "1.41 ± 0.07"}
{"sequence": "GGUCUGGAUACUAAACAACCUACAACCUCA", "pre-steady-state target cleavage rate": "0.501 ± 0.049"}
{"sequence": "GGAGAGCAUACUAUACAACCAACUACCUCA", "pre-steady-state target cleavage rate": "0.115 ± 0.011"}
{"sequence": "GGAGACCUUACUUACAACCUACUACCUCA", "pre-steady-state target cleavage rate": "0.138 ± 0.015"}
{"sequence": "GGAGACGAUACGUAUACAACCUACUACCUCA", "pre-steady-state target cleavage rate": "1.4 ± 0.13"}
{"sequence": "GGAGACCUUUCUAUUCAACCUACUACCUCA", "pre-steady-state target cleavage rate": "0.369 ± 0.043"}
{"sequence": "GGAGACCAUACUAAACAACCUACUACCUCA", "pre-steady-state target cleavage rate": "1.25 ± 0.11"}
{"sequence": "GGAGACCUAACUAUACAACGUAGUACCUCA", "pre-steady-state target cleavage rate": "0.015 ± 0.0033"}
{"sequence": "GGAGACCAUACCUAUACAACCUACUACCUCA", "pre-steady-state target cleavage rate": "0.775 ± 0.073"}
{"sequence": "GGACUGGAUACUAUACAACCUACUACCAUCA", "pre-steady-state target cleavage rate": "0.26 ± 0.038"}
{"sequence": "GCACUGGAUACUAUACUACCUACUACCUCA", "pre-steady-state target cleavage rate": "1.59 ± 0.1"}
{"sequence": "GGAGACCAUACUAUACAACCAACUUCCUCA", "pre-steady-state target cleavage rate": "0.0446 ± 0.0088"}
{"sequence": "GGAGACCUUACGAUACAACCUACUACCUCA", "pre-steady-state target cleavage rate": "1.03 ± 0.1"}
{"sequence": "GGAGACCUAACCAUACAACCUACUACCUCA", "pre-steady-state target cleavage rate": "0.468 ± 0.23"}
{"sequence": "GGAGUGGAUACUAUAUCAACCUACUACCUCA", "pre-steady-state target cleavage rate": "0.333 ± 0.064"}
{"sequence": "GGAGACCUAUCUAUACAACCUACUUGGUCA", "pre-steady-state target cleavage rate": "0.0045 ± 0.0026"}
